# Measured values: publication PMC7819943, “Rice protein-binding microarrays: a tool to detect cis-acting elements near promoter regions in rice”
# This is one part of the list.
# Biological target: T1, OsWOX13 (Oryza sativa, UniProt Q5QMM3 1-267)
# T1 sequence: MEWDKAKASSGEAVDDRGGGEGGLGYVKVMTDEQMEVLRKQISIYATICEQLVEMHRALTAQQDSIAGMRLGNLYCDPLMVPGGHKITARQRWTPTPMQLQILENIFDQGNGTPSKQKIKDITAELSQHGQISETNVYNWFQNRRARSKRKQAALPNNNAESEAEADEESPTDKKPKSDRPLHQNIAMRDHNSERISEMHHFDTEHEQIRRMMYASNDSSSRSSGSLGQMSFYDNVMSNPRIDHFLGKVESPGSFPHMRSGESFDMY
# Assay: protein-binding microarray (RPBM); PBS, 2% BSA, 51.3 ng/ul salmon testes DNA, 50 uM zinc acetate, 200 nM TF, 25 C, 1 h; high values mean tight binding
# Conditions: protein: recombinant; tags: N-terminal polyhistidine and DsRed monomer fusion (pET32a); label: CyDye5-dUTP incorporated in the synthesized complementary strand; 3' TTTTT single-stranded linker to array surface; dsDNA, one strand shown
# Outline: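 For the binding signal, per-feature fluorescence intensity was read in arbitrary units on an Axon 4000B scanner. Before scanning, a 2% BSA-blocked custom Agilent array made double-stranded with Cy5-dUTP was washed after 1 h at 25 °C with 200 nM protein and 50 µM zinc acetate. The proteins were Ni–NTA-purified transcription factors with N-terminal polyhistidine and DsRed fusions, expressed in E. coli BL21-CodonPlus.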
row,Sequence,binding signal
1,AGGGGATGGGGATGGGGATGGAGACGGGGACTTGGAACGACGGAGTCACCTAGTGCAG,3880 fluorescence intensity (a.u.)
2,CATAATTGATCAAGCCATGCAAAACCCAAAGGAGAACCGTCGGAGTCACCTAGTGCAG,51700 fluorescence intensity (a.u.)
3,TAGGATTGCAGATAACTTGATCATTATCCTAGTCGGGCCGCGGAGTCACCTAGTGCAG,3840 fluorescence intensity (a.u.)
4,CATAACTGTATAAACATTCAGTAAAGAATTTCCGTTTACGCGGAGTCACCTAGTGCAG,5600 fluorescence intensity (a.u.)
5,TTAAAACAATGGTGATAAATTGAATTGAGAGTGGTGGGGACGGAGTCACCTAGTGCAG,6690 fluorescence intensity (a.u.)
6,ACAAATGTGGTGATCAATAATTAGTAGTACTTGTTTGTTGCGGAGTCACCTAGTGCAG,9950 fluorescence intensity (a.u.)
7,ATCTCCAAAATTTTAAATTTTAATTAAAACCTAACTTACACGGAGTCACCTAGTGCAG,6930 fluorescence intensity (a.u.)
8,CCATAGCTAGCTGCGCATGTGATTGATGCAAAGGAGGAACCGGAGTCACCTAGTGCAG,4440 fluorescence intensity (a.u.)
9,CTTATCTGTCATGATTATCATTAGTTTTATGATAAACTTACGGAGTCACCTAGTGCAG,22600 fluorescence intensity (a.u.)
10,CTAAATTAACGCTGGCAACACGAGTTCAGGGGTTGTAAAACGGAGTCACCTAGTGCAG,6080 fluorescence intensity (a.u.)
11,CATGTAGTAATTATCTTCAATGGCAATGCAGCAGTATTTGCGGAGTCACCTAGTGCAG,3520 fluorescence intensity (a.u.)
12,AATCACGTCCTTAATTAATCACGCGCTAATGGACCGCTCACGGAGTCACCTAGTGCAG,14300 fluorescence intensity (a.u.)
13,ACCGACCAATGATGATTTGATTTCCCACTGGACTGGTATACGGAGTCACCTAGTGCAG,15300 fluorescence intensity (a.u.)
14,GGTAACTGGTTAGGAAAATGATACAAGTCACATAATCAGGCGGAGTCACCTAGTGCAG,4670 fluorescence intensity (a.u.)
15,CCATGTTTAATACTCTAAATTAGCATCCAAACATCCGATGCGGAGTCACCTAGTGCAG,3560 fluorescence intensity (a.u.)
16,GTGATAGATTTGCATCCCTCTATATATCAATGGATATTATCGGAGTCACCTAGTGCAG,20100 fluorescence intensity (a.u.)
17,CTTGAGATTGTAAACAGATGGCCATTGTCTGTTGTGTCAGCGGAGTCACCTAGTGCAG,8650 fluorescence intensity (a.u.)
18,ACGCTTGATCTGAGCTATAATTTGTTCACCGGTGAATTGCCGGAGTCACCTAGTGCAG,3600 fluorescence intensity (a.u.)
19,TAATAAGGGATAATTGCTTATTTCACCCTATTTTAAAGCCCGGAGTCACCTAGTGCAG,3490 fluorescence intensity (a.u.)
20,TGTTAATTTCATGCTAGGTAGCATAAAGACTCTGACATACCGGAGTCACCTAGTGCAG,4690 fluorescence intensity (a.u.)
21,ATTAGCGCATGATTAATTGATTATTAACTATTTTAAACTTCGGAGTCACCTAGTGCAG,27400 fluorescence intensity (a.u.)

row,Sequence,binding signal
1,GATAGATAGATAGATAGATAGATAGATAGATACTAGTACACGGAGTCACCTAGTGCAG,37000 fluorescence intensity (a.u.)
2,ACCCGATTTATTATTTTAGTCAAATCCCACGGTTAAGGTTCGGAGTCACCTAGTGCAG,4530 fluorescence intensity (a.u.)
3,CTAATTAATGACGCGTCCATTCGGATTTCGAGAATTCACACGGAGTCACCTAGTGCAG,9920 fluorescence intensity (a.u.)
4,CGTCAATCCAGTGATCCGTCTCTTTCCTGCGTACTATATCCGGAGTCACCTAGTGCAG,4110 fluorescence intensity (a.u.)
5,ATACAAACCACTAGTAATTGACCCCACAGGTTTAAATTCCCGGAGTCACCTAGTGCAG,6340 fluorescence intensity (a.u.)
6,CTAGCTCCAAATCATTTATATCCAATCTAATAATTTATTCCGGAGTCACCTAGTGCAG,4680 fluorescence intensity (a.u.)
7,TTTGTCAATTGATGTATACATATGTGCTTTGTGTTCCTACCGGAGTCACCTAGTGCAG,12200 fluorescence intensity (a.u.)
8,CGTCGCCGCAGTTTAATTGGCAGCTCACACACGCACGAGCCGGAGTCACCTAGTGCAG,8320 fluorescence intensity (a.u.)
9,ACCATGATTTGCCTCCGAGCCGCCTTCCCCTTGACCTCCTCGGAGTCACCTAGTGCAG,18700 fluorescence intensity (a.u.)
10,CCATAATTGCGTATATATAAACACATGAACATCAGCAGCACGGAGTCACCTAGTGCAG,33200 fluorescence intensity (a.u.)
11,GCTTGACAGCCACACTAACCAGAAGGAGGCCACACCCACACGGAGTCACCTAGTGCAG,16200 fluorescence intensity (a.u.)
12,AGTTAATTACTGCCTCTACTATTGATCATGCATGTAAGATCGGAGTCACCTAGTGCAG,31100 fluorescence intensity (a.u.)
13,GGAAATAATTATCATATGGTTCTTTGGATCAAGGAATGGCCGGAGTCACCTAGTGCAG,21100 fluorescence intensity (a.u.)
14,GCGTAATTAGGCTCAAAAGATTTGTTTTGCAATTTGCGTGCGGAGTCACCTAGTGCAG,34100 fluorescence intensity (a.u.)
15,AATGTTAAAACTTAATTTTAGATTTGATTTTAGGCTTCTTCGGAGTCACCTAGTGCAG,5830 fluorescence intensity (a.u.)
16,AAAACGTGGTGATTGTTTGGTTATCCTCCAATATGTCACTCGGAGTCACCTAGTGCAG,12800 fluorescence intensity (a.u.)
17,CCGAATGACATATAGAAATTGGCATTTTAGGATGGGCAAACGGAGTCACCTAGTGCAG,6670 fluorescence intensity (a.u.)
18,CTAAATTTTACAAGATTTTGTTGGTTACGGATAATACTGACGGAGTCACCTAGTGCAG,8910 fluorescence intensity (a.u.)
19,ATAAATTTTAAATAGTTGGATTGGGACAAATAGAGTTGATCGGAGTCACCTAGTGCAG,17300 fluorescence intensity (a.u.)
20,TATAAATTTGACAATAAATATAACAATCAAATTTATCATACGGAGTCACCTAGTGCAG,4980 fluorescence intensity (a.u.)
21,GCTTACAGTCTTACACTAATTTATACATTATTCTTGGTCCCGGAGTCACCTAGTGCAG,5110 fluorescence intensity (a.u.)
